Data reported in PubChem BioAssay AID624296 (National Center for Advancing Translational Sciences (NCATS), 2012).
Out of some 350,000 compounds screened, about 9,900 (2.8%) were called active. The shares of active, inactive and inconclusive entries below differ from those in the screen. Calls come from the whole dose curve; as a rule, active = well fitted activation curve with a large enough effect; inconclusive = small, poorly fitted or top-dose-only effect; inactive = no such curve, though single readings can be large or run the other way. Potencies of inconclusive entries are left out as doubtful fits.

Assay: A quantitative high throughput screen for small molecules that induce DNA re-replication in MCF 10a normal breast cells. Note: nearly all actives have a fitted effect of over 50% in size.
Settings: MCF 10A DNA re-replication, Hoechst nuclear intensity, 48 h; series mostly up to 46.1 µM
Potency is the fitted concentration of half-maximal effect; tags give direction and shape of the fitted curve.

Row | SMILES | Potency
1 | CC1CN(C(=O)c2cc3cc(Cl)cc(Cl)c3oc2=O)CC(C)O1 (stereo not given) | inconclusive [activator, single point]
2 | CC(C)CNC(=O)c1cc(-c2ccco2)on1 | inactive
3 | O=C(CC(=O)Nc1cccc(Cl)c1)N/N=C\c1ccccc1 | inconclusive [activator, full curve, poor fit]
4 | O=C1c2ccccc2C(O)N1c1ccccc1 (stereo not given) | inconclusive [activator, single point]
5 | COc1ccc2cc(C3=CCCCC3)ncc2c1 | inactive
6 | O=C(Nc1cccc(S(=O)(=O)N2CCCCC2)c1)Nc1ccc(Cl)cc1Cl | active: 7.31 µM
7 | CCOc1ccccc1OCCOCCOc1c(Cl)cccc1Cl | inconclusive [activator, partial curve]
8 | COc1ccc(NC(=O)N2CCC(c3nc(-c4cccs4)no3)CC2)cc1 | inactive
9 | CC(=O)c1ccccc1NC(=O)COC(=O)/C(=C/c1ccccc1)n1nnnc1C | inconclusive [activator, single point]
10 | COCCN(CCOC)S(=O)(=O)c1ccc(C(=O)Nc2nnc(C3CC3)o2)cc1 | inconclusive [activator, full curve, poor fit]
11 | COc1ccc(/C=N\NC(=O)c2cc(O)c(O)c(O)c2)cc1CN1CCN(c2ccc(F)cc2)CC1 | inconclusive [activator, partial curve, poor fit]
12 | COc1ccc(C(=O)NC(=S)Nc2cccc3nc(C)ccc23)cc1OC | inconclusive [activator, single point]
13 | Cc1noc(/C=C/N(C)C)c1S(=O)(=O)N1CCCC(C(=O)Nc2ccc3c(c2)OCO3)C1 (stereo not given) | inconclusive [activator, single point]
14 | CS(=O)(=O)Nc1ccc2c(c1)OCC(=O)N2Cc1ccccc1 | inactive
15 | CC(c1ccc(Cl)cc1)n1c(-c2ccc3ccccc3n2)n[nH]c1=S (stereo not given) | inconclusive [activator, single point]
16 | O=C(c1ccc(S(=O)(=O)c2ccccc2Cl)c([N+](=O)[O-])c1)N1CCN(Cc2ccccc2)CC1 | inconclusive [activator, single point]
17 | c1ccc(CCCc2nc(-c3ccccn3)no2)cc1 | inactive
18 | NC(=O)c1ccccc1N=Cc1ccc2ccccc2c1 | inconclusive [activator, single point]
19 | COc1cc(C=NNC(=O)c2ccccc2NS(=O)(=O)c2cccs2)cc(OC)c1O | inactive
20 | O=S1(=O)C=C(SCc2ccc(F)cc2)Nc2ccccc21 | inactive
21 | O=C(/C=C/c1ccc(S(=O)(=O)N2CCOCC2)cc1)Nc1ccc(F)c(F)c1F | inactive
22 | Cc1cccc(N=Cc2[nH]c3ccc(Br)c(Cl)c3c2O)c1 | inconclusive [activator, single point]
23 | O=C(C[n+]1cccc(CO)c1)Nc1nc2ccccc2s1 | inconclusive [activator, full curve, poor fit]

Row | SMILES | Potency
24 | COc1ccc2sc(N(CCCN(C)C)C(=O)c3ccc(S(=O)(=O)N(C)C4CCCCC4)cc3)nc2c1 | inconclusive [activator, partial curve, poor fit]
25 | CCC(C)(C)C1CCc2[nH]nc(C(=O)NCCNC(=O)OC(C)(C)C)c2C1 (stereo not given) | inconclusive [activator, single point]
26 | Cc1ccc(NCc2nnc(SCC#N)o2)c(C)c1 | inconclusive [activator, single point]
27 | CC1(NC(=O)NCCCCCCNC(=O)NC2(C)CCS(=O)(=O)C2)CCS(=O)(=O)C1 (stereo not given) | inactive
28 | Cc1nc(SCc2nc3ccccc3[nH]2)c2oc3cc([N+](=O)[O-])ccc3c2n1 | inactive
29 | O=C(COC(=O)Cn1cnc2ccccc21)Nc1ccc2c(c1)C(=O)c1ccccc1C2=O | inconclusive [activator, partial curve, poor fit]
30 | Cc1sc2ncnc(Nc3ccc(O)cc3)c2c1C | inconclusive [activator, partial curve, poor fit]
31 | N#Cc1ccc(C23CC4(C2)[C@H](CN(Cc2ccc(-c5ccccc5)cc2)[C@@H]4c2ccccc2)C3c2ccc(C(F)(F)F)cc2)cc1 (stereo not given in full) | inactive
32 | CCCCN(C(=O)Cn1nnc2ccccc21)C(C(=O)NCCOC)c1ccc(OC)cc1OC (stereo not given) | inactive
33 | CSc1nnc(NC(=O)c2nc(S(=O)(=O)Cc3ccccc3)ncc2Cl)s1 | inconclusive [activator, single point]
34 | Cc1ccc(S(=O)(=O)Nc2ccc(-c3nnc(SCc4ccccc4Cl)o3)cc2)cc1 | inconclusive [activator, single point]
35 | O=C(NCc1cccnc1)c1ccc(-c2cc(Cl)ccc2Cl)o1 | inconclusive [activator, single point]
36 | CCC(CC)c1nnc(NC(=O)CCc2ccccc2OC)s1 | inactive
37 | CC1=CC(C)(C)N2C(=O)C3(C(C#N)=C(N)OC4=C3C(=O)CCC4)c3c(C)c(C)cc1c32 (stereo not given) | inactive
38 | CCOC(=O)c1sc(=S)n(-c2ccc(OC)cc2)c1N | inactive
39 | N#C/C(=C\c1cn(-c2ccccc2)nc1-c1cccnc1)c1nnc2n1CCCCC2 | inactive
40 | COc1ccc(/C=C2\CCCC3C2=NN(C(=O)c2ccco2)C3c2ccc(OC)c(OC)c2)cc1OC (stereo not given) | inconclusive [activator, single point]
41 | COc1cccc(C(=O)Nc2ccc3c(cc2=O)[C@@H](NC(C)=O)CCc2cc(OC)c(OC)c(OC)c2-3)c1 | active: 5.8 µM
42 | CCOC(=O)N1CCC(NC(=O)CCc2c(C)nc3c(c(C)nn3-c3ccccc3)c2C)CC1 | inactive
43 | COc1cccc(NC(=O)CN(C)C(=O)CCC(=O)c2cc(C)sc2C)c1 | inconclusive [activator, single point]
44 | O=S(=O)(Cc1ccc(Cl)cc1)N1CCN(Cc2ccccc2)CC1 | inconclusive [activator, single point]
45 | C#CCn1c(S(=O)(=O)Cc2ccc(F)cc2)nc(-c2ccccc2)c1-c1ccccc1 | inconclusive [activator, partial curve, poor fit]
